According to PMC5681660, “Reduced hepatitis B and D viral entry using clinically applied drugs as novel inhibitors of the bile acid transporter NTCP” (Scientific Reports, 2017):

Key:
human NTCP [1] = biological target: T1, human NTCP (Homo sapiens, UniProt Q14973); test: Screening taurocholate uptake assay (96-well, [14C]taurocholate, 10 µM drug); details: for remaining activity at 10 µM: 10 min, read-out: %NTCP activity
T1 sequence (Q14973 1-349): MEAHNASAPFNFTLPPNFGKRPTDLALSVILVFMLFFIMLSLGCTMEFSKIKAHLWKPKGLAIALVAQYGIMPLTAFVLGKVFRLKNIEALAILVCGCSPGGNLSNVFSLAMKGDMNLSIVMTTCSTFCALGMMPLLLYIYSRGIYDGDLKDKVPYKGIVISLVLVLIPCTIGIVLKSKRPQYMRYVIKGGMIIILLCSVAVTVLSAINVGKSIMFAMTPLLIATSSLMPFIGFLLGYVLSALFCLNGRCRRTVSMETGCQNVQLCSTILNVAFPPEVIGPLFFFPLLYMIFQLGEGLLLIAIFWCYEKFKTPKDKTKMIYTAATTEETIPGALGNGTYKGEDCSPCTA

human NTCP [2] = biological target: T1, human NTCP; test: Screening fluorescent competitive Myrcludex B-FITC binding assay (96-well, 10 µM drug)
[3] = 0.5 h, read-out: %NTCP binding, Prestwick library screen, Myrcludex B-FITC binding, 10 µM drug
[4] = Prestwick library screen, 10 µM drug, [14C]taurocholate uptake
[5] = Prestwick library screen, 10 µM drug, Myrcludex B-FITC binding
[6] = Prestwick library screen, [14C]taurocholate uptake, 10 µM drug
[7] = Prestwick library screen, Myrcludex B-FITC binding, 10 µM drug
[8] = screen, 10 µM drug, [14C]taurocholate uptake
[9] = screen, 10 µM drug, Myrcludex B-FITC binding

| Compound | remaining activity at 10 µM (human NTCP [1]) [%] | remaining activity at 10 µM (human NTCP [2]; 0.5 h, read-out: %NTCP binding) [%] | further results |
| --- | --- | --- | --- |
| CO[C@@H]1[C@@H](O[C@@H]2O[C@H](C)[C@@H](O[C@H]3C[C@@](C)(O)[C@@H](OC(=O)CC(C)C)[C@H](C)O3)[C@H](N(C)C)[C@H]2O)[C@@H](CC=O)C[C@@H](C)[C@@H](O)/C=C/C=C/C[C@@H](C)OC(=O)C[C@H]1OC(C)=O [Josamycin] | 97.2 | 87 | – |
| Clc1cc(Cl)c(OCC#CI)cc1Cl [Haloprogin] | 94.7 | 72 | – |
| CC(=O)OCC(=O)[C@@]1(O)[C@H](C)C[C@H]2[C@@H]3CCC4=CC(=O)C=C[C@]4(C)[C@@]3(F)[C@@H](O)C[C@@]21C [Dexamethasone acetate] | 88.6 | 75 | – |
| COc1cccc2c1C(=O)c1c(O)c3c(c(O)c1C2=O)C[C@@](O)(C(C)=O)C[C@@H]3O[C@H]1C[C@H](N)[C@H](O)[C@H](C)O1 [Daunorubicin hydrochloride] | 53.6 | – | remaining activity at 10 µM (human NTCP [2]; [3]): 97.8% |
| O.O=P(O)(O)C(O)(Cc1cccnc1)P(=O)(O)O [Risedronic acid monohydrate] | – | – | %NTCP activity (human NTCP [1]; [4]): 115.113%; %NTCP binding (human NTCP [2]; [5]): 58.0818% |
| CCC(Cc1c(I)cc(I)c(N)c1I)C(=O)O (centres unmarked) [Iopanoic acid] | 50.5 | 95.3 | – |
| CC/C(=C(\c1ccccc1)c1ccc(OCCN(C)C)cc1)c1ccccc1 [Tamoxifen citrate] | 69.2 | 81.8 | – |
| CC[C@@H]1C(=O)OC[C@@H]1Cc1cncn1C [Pilocarpine nitrate] | 26.4 | 51.5 | – |
| NC12CC3CC(CC(C3)C1)C2.O=C(O)/C=C/C(=O)O [Adamantamine fumarate] | – | – | %NTCP activity (human NTCP [1]; [6]): 63.0024%; %NTCP binding (human NTCP [2]; [7]): 65.3061% |
| COc1cc2nc(N3CCN(C(=O)C4CCCO4)CC3)nc(N)c2cc1OC (centres unmarked) [Terazosin hydrochloride] | 89.1 | 85.9 | – |
| CCOc1ccc2c(c1)C(C)=CC(C)(C)N2 [Ethoxyquin] | 66.2 | 90.7 | – |
| NC(=O)c1ccc[n+]([C@@H]2O[C@H](COP(=O)([O-])OP(=O)(O)OC[C@H]3O[C@@H](n4cnc5c(N)ncnc54)[C@H](O)[C@@H]3O)[C@@H](O)[C@H]2O)c1 [Nadide] | 118 | 99.8 | – |
| CN1CCN2c3ccccc3Cc3ccccc3C2C1.Cl (centres unmarked) [Mianserine hydrochloride] | – | – | %NTCP activity (human NTCP [1]; [6]): 81.404%; %NTCP binding (human NTCP [2]; [7]): 90.6884% |
| CC(C)NCC(O)c1ccc2ccccc2c1.Cl (centres unmarked) [Pronethalol hydrochloride] | – | – | %NTCP activity (human NTCP [1]; [8]): 69.3345%; %NTCP binding (human NTCP [2]; [9]): 103.471% |
| C[C@](N)(Cc1ccc(O)c(O)c1)C(=O)O [Methyldopa (L,-)] | – | – | %NTCP activity (human NTCP [1]; [6]): 58.8452%; %NTCP binding (human NTCP [2]; [7]): 56.8892% |
| C#C[C@]1(O)CC[C@H]2[C@@H]3CCC4=CC(=O)CCC4=C3C=C[C@@]21CC [Gestrinone] | 46 | – | remaining activity at 10 µM (human NTCP [2]; 0.5 h, read-out: %NTCP binding, screen, 10 µM drug, Myrcludex B-FITC binding): 113% |
| CCCCOC(=O)c1ccc(O)cc1 [Butylparaben] | 100 | – | remaining activity at 10 µM (human NTCP [2]; [3]): 119% |
| Cl.NCC(O)c1ccc(O)cc1 (racemic) [(+,-)-Octopamine hydrochloride] | – | – | %NTCP activity (human NTCP [1]): 75.3776%; %NTCP binding (human NTCP [2]; [5]): 84.3899% |
| O=C1CCc2ccc(OCCCCN3CCN(c4cccc(Cl)c4Cl)CC3)cc2N1 [Aripiprazole] | 83.6 | 79.6 | – |

| Compound | remaining activity at 10 µM (human NTCP [1]) [%] | remaining activity at 10 µM (human NTCP [2]; 0.5 h, read-out: %NTCP binding) [%] | further results |
| --- | --- | --- | --- |
| C=CCSCC1Nc2cc(Cl)c(S(N)(=O)=O)cc2S(=O)(=O)N1 (centres unmarked) [Althiazide] | 101 | 103 | – |
| CCCCCCCCNC(C)C(O)c1ccc(SC(C)C)cc1 (centres unmarked) [Suloctidil] | 98.1 | 62.4 | – |
| CC(=O)OCC(=O)[C@@]1(OC(C)=O)[C@@H](C)C[C@H]2[C@@H]3C[C@H](F)C4=CC(=O)C=C[C@]4(C)[C@@]3(F)[C@@H](O)C[C@@]21C [Diflorasone Diacetate] | 123 | 75.1 | – |
| CC(=O)O[C@]1(C(C)=O)CC[C@H]2[C@@H]3C=C(Cl)C4=CC(=O)[C@@H]5C[C@@H]5[C@]4(C)[C@H]3CC[C@@]21C [Cyproterone acetate] | 47.9 | 101 | – |
| CC(=O)N[C@@H](CC(C)C)C(=O)O [N-Acetyl-L-leucine] | 91.4 | 129 | – |
| Cc1ccc(Cl)c(Nc2ccccc2C(=O)[O-])c1Cl.O.[Na+] | – | – | %NTCP activity (human NTCP [1]): 66.0562%; %NTCP binding (human NTCP [2]; [9]): 37.4523% |
| Cl.O=C(O)/C=C/c1ccc(Cn2ccnc2)cc1 [Ozagrel hydrochloride] | – | – | %NTCP activity (human NTCP [1]; [4]): 78.6871%; %NTCP binding (human NTCP [2]; [5]): 102.398% |
| OCCN(CCO)c1nc(N2CCCCC2)c2nc(N(CCO)CCO)nc(N3CCCCC3)c2n1 [Dipyridamole] | 59.6 | 90.2 | – |
| CO[C@@]1(NC(=O)Cc2cccs2)C(=O)N2C(C(=O)O)=C(COC(N)=O)CS[C@@H]21 [Cefoxitin sodium salt] | 96.9 | 111 | – |
| NC[C@@H]1O[C@H](O[C@H]2[C@@H](O)[C@H](O[C@@H]3[C@@H](O)[C@H](N)C[C@H](N)[C@H]3O[C@H]3O[C@H](CO)[C@@H](O)[C@H](O)[C@H]3N)O[C@@H]2CO)[C@H](N)[C@@H](O)[C@@H]1O [Paromomycin sulfate] | 104 | 92.7 | – |
| CC(=O)Nc1c(I)c(NC(C)=O)c(I)c(C(=O)O)c1I.O.O [Diatrizoic acid dihydrate] | – | – | %NTCP activity (human NTCP [1]; [6]): 93.4776%; %NTCP binding (human NTCP [2]; [7]): 85.5063% |
| CN1C(=O)CCS(=O)(=O)C1c1ccc(Cl)cc1 (centres unmarked) [Chlormezanone] | 65.8 | – | remaining activity at 10 µM (human NTCP [2]; 0.5 h, read-out: %NTCP binding, Prestwick library screen, 10 µM drug, Myrcludex B-FITC binding): 66.8% |
| CN(C)CCCN1c2ccccc2CCc2ccc(Cl)cc21 [Clomipramine hydrochloride] | 92.5 | 63.7 | – |
| C[C@]12C=CC(=O)C=C1CC[C@H]1[C@@H]3C[C@@H](O)[C@](O)(C(=O)CO)[C@@]3(C)C[C@H](O)[C@@]12F [Triamcinolone] | 63.5 | 81.8 | – |
| C[C@]12CCC(=O)C=C1C=C[C@@H]1[C@@H]2CC[C@@]2(C)[C@H]1CC[C@@]21CCC(=O)O1 [Canrenone] | 52.4 | 109 | – |
| CC1NC(=O)NC1=O (centres unmarked) [Methylhydantoin-5-(L)] | 124 | – | remaining activity at 10 µM (human NTCP [2]; [3]): 88.2% |
| CC(Oc1ccccc1)C(=O)N[C@@H]1C(=O)N2[C@@H]1SC(C)(C)[C@@H]2C(=O)[O-].[K+] (some centres unmarked) [Phenethicillin potassium salt] | – | – | %NTCP activity (human NTCP [1]; [8]): 63.7815%; %NTCP binding (human NTCP [2]; [9]): 93.2901% |
| NCC(CC(=O)O)c1ccc(Cl)cc1 (racemic) [Baclofen (R,S)] | – | – | %NTCP activity (human NTCP [1]): 50.4585%; %NTCP binding (human NTCP [2]; [5]): 83.317% |

Further lines, with some results ahead:

| remaining activity at 10 µM (human NTCP [1]) [%] | remaining activity at 10 µM (human NTCP [2]; 0.5 h, read-out: %NTCP binding) [%] | Compound | further results |
| --- | --- | --- | --- |
| 123 | 87.7 | NS(=O)(=O)c1cc(C(=O)O)cc(N2CCCC2)c1Oc1ccccc1 [Piretanide] | – |
| 74.3 | 126 | CN(C(=O)C(Cl)Cl)c1ccc(OC(=O)c2ccco2)cc1 [Diloxanide furoate] | – |
| 73 | 65 | CC(C)(Oc1ccc(CCNC(=O)c2ccc(Cl)cc2)cc1)C(=O)O [Bezafibrate] | – |
| 82.5 | 106 | Cc1[nH]c(=O)c(C#N)cc1-c1ccncc1 [Milrinone] | – |
| 97.3 | 71.2 | COc1ccc(-c2ccc3cc(C(=O)O)ccc3c2)cc1C12CC3CC(CC(C3)C1)C2 [Adapalene] | – |
| 41.6 | 120 | O=c1oc2ccccc2c(O)c1Cc1c(O)c2ccccc2oc1=O [Dicumarol] | – |
| 86.9 | 91.1 | Clc1ccc(C(Cn2ccnc2)OCc2csc3c(Cl)cccc23)c(Cl)c1 (centres unmarked) [Sertaconazole nitrate] | – |
| 122 | 66.5 | O=C(O)CCC(=O)c1ccc(-c2ccccc2)cc1 [Fenbufen] | – |
| 117 | 98.2 | CN1CCN(C(c2ccccc2)c2ccc(Cl)cc2)CC1 (centres unmarked) [Chlorcyclizine hydrochloride] | – |
| 58.9 | 50 | COc1ccc(C(=O)NCc2ccc(OCCN(C)C)cc2)cc1OC [Itopride] | – |
| 107 | 96.1 | CC[C@@]1(O)C(=O)OCc2c1cc1n(c2=O)Cc2cc3c(CN(C)C)c(O)ccc3nc2-1 [Topotecan] | – |
| 73 | 81.2 | Cc1cc(N)c2ccccc2[n+]1CCCCCCCCCC[n+]1c(C)cc(N)c2ccccc21 [Dequalinium dichloride] | – |
| 109 | 97.2 | Oc1c(I)cc(Cl)c2cccnc12 [Clioquinol] | – |
| 91.4 | 104 | O=C(O)c1ccccc1OP(=O)(O)O [Fosfosal] | – |
| 115 | 72.5 | CN1CCC(=C2c3ccccc3CCc3cccnc32)CC1 [Azatadine maleate] | – |

Structures can show the parent of a compound that is named as a salt. Where two headings read alike, the source gives them in different places.
